According to PubChem BioAssay AID504332 (National Center for Advancing Translational Sciences (NCATS), 2011):
Values joined by “and” are separate entries in the source; they are usually repeats but may differ in a detail not shown here. Equal entries are not always repeated. In all, about 350,000 compounds went through this assay and about 31,000 (8.9%) were called active. Inconclusive results, whose numbers are uncertain, are shown with a selection of clear calls. Calls follow the shape of the dose curve; as a rule, active = well fitted inhibition curve with a large enough effect; inconclusive = small, poorly fitted or top-dose-only effect; inactive = no such curve, though single readings can be large or run the other way. Potencies of inconclusive entries are doubtful fits and often do not repeat. Some structures have more than one record in an assay (separate samples or runs), and their calls can disagree.
% is scaled to controls: 0 for no effect and ±100 for the full control effect; potency is read from the fitted curve at half-maximal effect; tags tell the direction and shape of the fitted curve.
Also: nearly all actives have a fitted effect of over 75% in size.

Each compound was assayed against Histone-lysine N-methyltransferase EHMT2 (Homo sapiens) (UniProt Q96KQ7) (assay: qHTS Assay for Inhibitors of Histone Lysine Methyltransferase G9a). Details: G9a H3K9 monomethylation, AlphaScreen, 2 h; activity, negative = inhibition: at 59 µM (top of the series) unless noted.
UniProt Q96KQ7, sequence (Q96KQ7 whole entry, looked up): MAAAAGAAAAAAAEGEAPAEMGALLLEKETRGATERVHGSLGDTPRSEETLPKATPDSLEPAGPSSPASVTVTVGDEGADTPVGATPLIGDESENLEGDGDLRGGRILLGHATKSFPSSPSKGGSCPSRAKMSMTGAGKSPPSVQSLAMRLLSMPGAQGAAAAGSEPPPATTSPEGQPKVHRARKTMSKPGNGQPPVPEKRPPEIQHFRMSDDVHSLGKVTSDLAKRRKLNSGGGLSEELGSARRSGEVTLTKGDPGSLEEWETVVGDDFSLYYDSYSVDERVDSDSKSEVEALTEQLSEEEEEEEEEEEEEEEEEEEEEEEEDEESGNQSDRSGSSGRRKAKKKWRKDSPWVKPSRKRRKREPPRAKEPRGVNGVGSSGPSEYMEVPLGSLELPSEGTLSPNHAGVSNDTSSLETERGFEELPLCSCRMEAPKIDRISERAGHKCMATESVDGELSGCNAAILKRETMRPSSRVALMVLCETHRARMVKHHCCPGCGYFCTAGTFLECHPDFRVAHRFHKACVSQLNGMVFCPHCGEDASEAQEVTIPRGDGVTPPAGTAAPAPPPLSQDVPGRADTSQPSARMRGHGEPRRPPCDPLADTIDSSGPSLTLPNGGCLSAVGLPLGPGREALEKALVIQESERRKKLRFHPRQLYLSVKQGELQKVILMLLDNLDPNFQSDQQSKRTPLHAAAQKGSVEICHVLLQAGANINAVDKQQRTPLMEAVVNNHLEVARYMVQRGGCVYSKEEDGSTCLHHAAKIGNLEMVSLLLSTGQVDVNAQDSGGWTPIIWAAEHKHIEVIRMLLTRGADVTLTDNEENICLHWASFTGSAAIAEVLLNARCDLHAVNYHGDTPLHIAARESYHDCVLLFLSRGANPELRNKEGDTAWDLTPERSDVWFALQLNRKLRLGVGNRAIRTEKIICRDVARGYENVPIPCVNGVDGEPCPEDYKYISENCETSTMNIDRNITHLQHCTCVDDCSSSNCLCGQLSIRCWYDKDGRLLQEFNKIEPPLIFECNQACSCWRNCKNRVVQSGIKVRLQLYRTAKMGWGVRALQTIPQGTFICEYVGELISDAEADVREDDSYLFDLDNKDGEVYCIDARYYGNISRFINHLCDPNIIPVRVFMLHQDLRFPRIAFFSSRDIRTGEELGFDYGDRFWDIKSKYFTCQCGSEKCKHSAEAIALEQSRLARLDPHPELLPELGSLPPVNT
In short: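 Methyltransferase reactions run at room temperature for 2 h (20 nM enzyme, 500 nM biotin-H3K9 peptide, 20 uM SAM) after a 15 min compound preincubation; product detected by AlphaScreen beads and anti-H3K9me1 antibody.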
For `Cc1ccc(-c2cc(C(=O)N(Cc3ccccc3)Cc3ccco3)no2)cc1F`, the Potency was inconclusive: 39.8 µM [inhibitor, partial curve, poor fit].
`Cc1ccc(NC(=O)COC(=O)CCn2c(C)csc2=O)c([N+](=O)[O-])c1` was tested, and the Potency was inconclusive: 89.1 µM [inhibitor, partial curve, poor fit].
For `CCc1ccc(-c2nnn(Cc3nn[nH]n3)n2)cc1`, the Potency was inconclusive: 89.1 µM [inhibitor, single point].
With `COCC(C)n1c(C)cc(C(=O)COC(=O)CCc2nc3ccccc3c(=O)[nH]2)c1C` (stereo not drawn) the Potency was inconclusive: 89.1 µM [inhibitor, partial curve, poor fit].
In the case of `CCOc1ccc(OCC(=O)Nc2ccc(N3CCCCC3)cc2)cc1`, the Potency is reported as “inactive”.
In the case of `CCOC(=O)c1sc(NC(=O)c2ccc3nc[nH]c3c2)nc1C`, the Potency is reported as inconclusive: 89.1 µM [inhibitor, single point].
For `Cc1ccc(NC(=O)CSCC(=O)NC2=NCCS2)cc1`, the Potency was inconclusive: 39.8 µM [inhibitor, single point].
With `Cc1csc(NC(=O)C2C3C=CC(O3)C2C(=O)O)n1` (stereo not drawn) the Potency was inconclusive: 20 µM [inhibitor, partial curve, poor fit].
For `COc1ccc(NC(=O)C2CCN(S(=O)(=O)c3ccc4[nH]c(=O)oc4c3)CC2)c(OC)c1`, the Potency was “inactive”.
For `COc1cc(/C=C2\C(=O)N(c3ccc(S(N)(=O)=O)cc3)N=C2C)ccc1OC(=O)c1ccco1`, the Potency was inconclusive: 2.82 µM [inhibitor, full curve, poor fit].
In the case of `Cc1ccc(-n2nc3c(=S)[nH]nc(C)c3c2C)cc1`, the activity, negative = inhibition is reported as inconclusive: -64.6% [inhibitor].
`O=C(Nc1ccncc1)C1CCN(S(=O)(=O)c2c(Cl)cccc2Cl)CC1` was tested, and the activity, negative = inhibition was inactive: 7.92% [at 0.501 µM].
With `O=C(O)c1cc([N+](=O)[O-])ccc1C(=O)Nc1ccccc1` the Potency was inconclusive: 25.1 µM [inhibitor, single point].
With `COc1ccccc1C(=O)Nc1nnc(S(=O)(=O)N2CCCCCC2)s1` the Potency was “inactive and active: 10 µM”.
`O=C(COc1ccc(S(=O)(=O)NC2CCCCC2)cc1)N1CCN(c2ccc(F)cc2)CC1` was tested, and the Potency was inconclusive: 89.1 µM [inhibitor, single point].
In the case of `Nc1c(C(=O)N2CCCCCC2)oc2ccccc12`, the Potency is reported as inconclusive: 79.4 µM [inhibitor, single point].
In the case of `CCn1c(SCC(=O)N2CCCc3ccccc32)nnc1-c1ccco1`, the Potency is reported as “inactive”.
In the case of `Cc1nc(SCC(=O)c2ccccc2)c(C#N)c(-c2ccco2)c1C(=O)NCc1ccco1`, the Potency is reported as inconclusive: 7.08 µM [inhibitor, single point].
In the case of `COC(=O)c1ccc(-n2c(C)cc(-c3csc(NC(=O)c4ccc(S(=O)(=O)N(C)C)cc4)n3)c2C)cc1`, the Potency is reported as “inactive”.
For `Cc1cccc(N2C(=O)/C(=C/c3cccnc3)SC2=S)c1`, the Potency was active: 15.8 µM.
With `CCc1ccc(S(=O)(=O)/N=C2\C=CC(=O)c3ccccc32)cc1` the Potency was active: 14.1 µM.
In the case of `COc1ccc(CC(=O)N2CCN(c3ccccc3F)CC2)cc1OC`, the Potency is reported as “inactive”.
With `N#CC(Sc1ccccn1)c1ccc(Cl)cc1Cl` (stereo not drawn) the Potency was inconclusive: 8.91 µM [inhibitor, partial curve, poor fit].
`Cc1ccc(OCC(=O)NCCCNC(=O)c2ccncc2)cc1` was tested, and the Potency was active: 31.6 µM.
For `COc1ccc(C)c2sc(N(Cc3cccnc3)C(=O)CCc3ccccc3)nc12`, the Potency was inconclusive: 3.16 µM [inhibitor, partial curve, poor fit].
For `CCCn1cnc2sc(C(N)=O)c(C)c2c1=O`, the Potency was inconclusive: 25.1 µM [inhibitor, single point].
In the case of `[O-][n+]1onc2c1CCC(=N/O)/C2=N\Nc1ccccc1`, the Potency is reported as active: 25.1 µM.
In the case of `CCc1ccc(-c2nc(NC(=S)NC(=O)c3cccs3)sc2C)cc1`, the Potency is reported as “inactive”.
For `COCCN1CC(=O)N2C(c3cccc(OC)c3)c3[nH]c4ccccc4c3C[C@H]2C1=O` (stereo partly drawn), the activity, negative = inhibition was inactive: 14.9% [at 0.501 µM].
For `COc1ccccc1NC(=S)NC(=O)C1CC1`, the Potency was inconclusive: 31.6 µM [inhibitor, single point].
With `O=C(Cn1c(=S)[nH]c2ccccc2c1=O)N1CCN(c2ccccc2)CC1` the Potency was inconclusive: 89.1 µM [inhibitor, partial curve, poor fit].
With `COc1ccc2c(CC(=O)Nc3ccc(OC)nc3)coc2c1` the Potency was inconclusive: 89.1 µM [inhibitor, partial curve, poor fit].
For `N#Cc1c(SCC(=O)Nc2ccccc2C(F)(F)F)sc2c(O)cc(=O)[nH]c12`, the Potency was “inactive”.
`Cc1ccc(S(=O)(=O)N(CCC(=O)N2CCOCC2)c2ccccc2)cc1` was tested, and the Potency was active: 14.1 µM.
`Cc1cccc(/C=N\NC(=O)c2csnn2)c1` was tested, and the activity, negative = inhibition was inactive: 8.75% [at 0.501 µM].
For `COc1ccc(-c2noc(CN3CCN(c4ccccc4OC)CC3)n2)cc1OC`, the Potency was “inactive”.
In the case of `CCOC(=O)c1c(NC(=O)COC(=O)c2ccccn2)sc(C)c1C`, the Potency is reported as inconclusive: 3.55 µM [inhibitor, single point].
With `Cc1ccc(C(=O)COC(=O)c2cc(-c3ccc(Cl)cc3)nc3ccccc23)cc1` the Potency was “inactive”.
With `CC1(c2cccc(Br)c2)NC(=O)N(CC(=O)NC2CCCCC2)C1=O` (stereo not drawn) the Potency was inconclusive: 1.41 µM [inhibitor, partial curve, poor fit].
For `CC(C)C[C@@H](COc1ccccc1)N1CCN(CC(C)C)CCC1=O`, the Potency was inconclusive: 79.4 µM [inhibitor, single point].
In the case of `O=C(/C=C/c1ccc2ccccc2n1)c1cc(Br)ccc1O`, the Potency is reported as active: 10 µM.
With `CCN1CCN(c2cc(C)c3cc(NC(=O)c4ccc(Br)o4)ccc3n2)CC1` the Potency was inconclusive: 12.6 µM [inhibitor, partial curve, poor fit].
`CC(C)(C)c1cc(NC(=O)c2cccc([N+](=O)[O-])c2)no1` was tested, and the Potency was “inactive”.
With `CCN1CCN(CC(=O)N2CCCC(C(=O)c3ccc(Oc4ccccc4)cc3)C2)CC1` (stereo not drawn) the Potency was active: 35.5 µM.
`CNS(=O)(=O)c1cccc(C(=O)OCC(=O)NC2CCCC2)c1` was tested, and the activity, negative = inhibition was inactive: -30.8% [at 2.33 µM].
With `CCCCC(=O)Nc1nnc(-c2ccco2)o1` the Potency was “inactive”.
For `Nc1nc(SCC(=O)Nc2ccc(OCc3ccccc3)cc2)n[nH]1`, the Potency was “inactive”.
For `CCOC(=O)Cc1csc(NS(=O)(=O)c2cccc([N+](=O)[O-])c2)n1`, the activity, negative = inhibition was inactive: -7.41% [at 0.501 µM].
With `COc1ccc(NC(=O)CN2CCC3(O)CCCCC3C2c2ccccc2OC)cc1` (stereo not drawn) the Potency was inconclusive: 89.1 µM [inhibitor, single point].
For `Cc1ccccc1OCC(=O)OCC(=O)Nc1ccc2c(c1)OCCO2`, the Potency was inconclusive: 1.41 µM [inhibitor, single point].
`Cc1cc(C)n2nc(C(=O)OCC(=O)c3ccc(F)cc3)nc2n1` was tested, and the Potency was active: 56.2 µM.
In the case of `CC(=O)c1ccc(OC(C)c2nc3ccccc3s2)cc1` (stereo not drawn), the Potency is reported as “inactive”.
`Cn1c(=O)c2c(nc(NCc3ccco3)n2CC(O)COc2ccccc2)n(C)c1=O` (stereo not drawn) was tested, and the Potency was inconclusive: 89.1 µM [inhibitor, partial curve, poor fit].
In the case of `O=C(NCc1ccco1)c1ccc([N+](=O)[O-])o1`, the Potency is reported as active: 44.7 µM.
For `Cc1ccc(C(c2c(O)nc3n(c2=O)CCS3)c2c(O)nc3n(c2=O)CCS3)cc1`, the Potency was active: 10 µM.
In the case of `O=c1c(CN2CCN(Cc3ccccc3)CC2)coc2ccc(Cl)cc12`, the activity, negative = inhibition is reported as inconclusive: -101% [inhibitor].
For `COc1ccc(OC)c(NC(=O)c2cc3sccc3n2C)c1`, the Potency was active: 50.1 µM.
`CN(C)/C=N/c1nc2nccc(-c3ccc(F)cc3)n2n1` was tested, and the Potency was “inactive”.
`CC(C)=CCC/C(C)=C/CC/C(C)=C/CC/C(C)=C/CC1=C(C)C(=O)c2ccccc2C1=O` was tested, and the Potency was inconclusive: 39.8 µM [inhibitor, single point].
With `Cc1cc(C(=O)COC(=O)c2ccc(O)cc2O)c(C)n1-c1ccc(OC(F)F)cc1` the Potency was inconclusive: 89.1 µM [inhibitor, partial curve, poor fit].
With `CCOCC(=O)Nc1cc(Cl)ccc1C` the activity, negative = inhibition was inactive: 7.08% [at 0.501 µM].
For `CCc1nc(SCc2ccc(F)cc2)[nH]c(=O)c1C#N`, the Potency was inconclusive: 10 µM [inhibitor, partial curve, poor fit].
In the case of `COC(=O)c1c(NC(=O)/C=C/C(=O)O)sc(C)c1-c1ccc(C)cc1`, the Potency is reported as inconclusive: 35.5 µM [inhibitor, partial curve].
With `O=C(O)CN1CCN(Cc2ccc(F)cc2Cl)C1=O` the Potency was active: 25.1 µM.
`COc1ccccc1N1CCN(CC(=O)Nc2cccc(F)c2)CC1` was tested, and the Potency was “inactive”.
`N#Cc1ccccc1CSc1ccc(-c2nc3ccccc3[nH]2)cn1` was tested, and the Potency was inconclusive: 8.91 µM [inhibitor, partial curve, poor fit].
With `NS(=O)(=O)c1ccc(NC(=S)NCc2ccc(F)cc2)cc1` the Potency was inconclusive: 6.31 µM [inhibitor, single point].
In the case of `NC(=S)NNC(=O)[C@@H]1CCCC[C@@H]1C(=O)O`, the Potency is reported as active: 44.7 µM.
With `O=C(c1cc(-c2ccco2)nc2ccccc12)N1CCN(Cc2ccccc2)CC1` the activity, negative = inhibition was inactive: 9.19% [at 2.33 µM].
With `CCCCCOc1ccc(NC(=O)C(=O)NCC2CCCN2CC)cc1` (stereo not drawn) the Potency was “inactive”.
With `Cc1ccccc1CC1SC(N=C(N)N)=NC1=O` (stereo not drawn) the Potency was “inactive”.
`CC(C)CCNC(=O)CSCc1cnn(-c2ccccc2)c1-n1cccc1` was tested, and the Potency was inconclusive: 28.2 µM [inhibitor, partial curve, poor fit].
`Cc1sc2ncnc(N3CCC(C(=O)Nc4sc5c(c4C(N)=O)CCC(C)C5)CC3)c2c1C` (stereo not drawn) was tested, and the Potency was inconclusive: 35.5 µM [inhibitor, single point].
